# Assay results from paper PMC4336329 (PLoS ONE, 2015).
# Out of some 310,000 compounds screened, about 14,000 (4.5%) showed an effect of 50% or more. The effect is printed as a negative number. The list shows a part of the results.
# Biological target: human ether-à-go-go-related gene (hERG) potassium channel (human, UniProt Q12809)
# Experiment: primary screen, population patch clamp on CHO cells stably expressing hERG
# 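Also: peak tail current of the secondary pulse compared with the same well before compound.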
# Chain of human ether-à-go-go-related gene (hERG) potassium channel (Q12809 whole entry, looked up): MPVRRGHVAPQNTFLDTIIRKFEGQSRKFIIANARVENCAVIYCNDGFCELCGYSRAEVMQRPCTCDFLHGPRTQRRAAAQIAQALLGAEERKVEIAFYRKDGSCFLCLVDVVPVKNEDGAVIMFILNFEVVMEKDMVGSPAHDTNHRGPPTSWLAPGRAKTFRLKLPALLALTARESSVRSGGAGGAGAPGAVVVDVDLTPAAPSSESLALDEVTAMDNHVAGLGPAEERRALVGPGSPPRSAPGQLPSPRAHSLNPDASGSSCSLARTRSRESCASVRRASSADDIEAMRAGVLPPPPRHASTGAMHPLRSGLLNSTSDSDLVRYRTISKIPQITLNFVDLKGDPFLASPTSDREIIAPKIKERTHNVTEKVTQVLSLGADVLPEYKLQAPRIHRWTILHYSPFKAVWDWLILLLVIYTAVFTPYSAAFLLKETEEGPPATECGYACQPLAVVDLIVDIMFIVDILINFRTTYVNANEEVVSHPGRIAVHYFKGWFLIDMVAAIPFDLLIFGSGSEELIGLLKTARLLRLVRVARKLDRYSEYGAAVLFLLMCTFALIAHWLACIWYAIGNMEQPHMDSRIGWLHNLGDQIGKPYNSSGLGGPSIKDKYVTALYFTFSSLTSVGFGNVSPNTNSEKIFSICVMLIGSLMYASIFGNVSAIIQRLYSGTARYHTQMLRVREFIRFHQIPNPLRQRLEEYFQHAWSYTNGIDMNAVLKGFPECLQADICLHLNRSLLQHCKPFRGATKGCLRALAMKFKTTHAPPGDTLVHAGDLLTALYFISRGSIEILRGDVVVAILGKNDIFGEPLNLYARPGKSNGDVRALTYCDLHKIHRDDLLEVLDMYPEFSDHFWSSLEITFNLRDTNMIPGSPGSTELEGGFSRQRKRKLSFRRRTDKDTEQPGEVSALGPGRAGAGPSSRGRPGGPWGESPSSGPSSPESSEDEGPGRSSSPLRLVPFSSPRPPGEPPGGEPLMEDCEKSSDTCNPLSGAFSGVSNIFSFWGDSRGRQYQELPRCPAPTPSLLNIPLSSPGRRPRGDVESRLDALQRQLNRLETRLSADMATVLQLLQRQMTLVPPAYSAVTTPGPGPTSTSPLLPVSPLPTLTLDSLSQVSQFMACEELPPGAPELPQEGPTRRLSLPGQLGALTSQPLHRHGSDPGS
row,SMILES,"hERG current change (%, negative = inhibition) at 10uM"
1,Cc1ccc(CNC(=O)c2ccc3c(=O)n(CC4CCCO4)c(=S)[nH]c3c2)cc1 (stereo not shown),-9.6%
2,O=C(CSc1nnc(-c2ccc(O)cc2)n1Cc1ccco1)c1ccccc1,-17.5%
3,Cc1ccc(CN(CC(=O)NCCc2ccccc2)C(=O)CCCC(=O)Nc2cc(C)on2)cc1,-38.2%
4,CC1=C(C(N)=O)C(c2ccccn2)n2nc(SCc3ccccc3)nc2N1 (stereo not shown),-11.9%
5,COc1cc(NC(=O)NCC2CCN(Cc3ccccc3C)CC2)cc(OC)c1OC,-2.71%
6,CCOC(=O)Cn1c(-c2ccccc2)nc2ccccc2c1=O,-2.89%
7,Cc1cccc(NC(=O)c2cc(S(=O)(=O)N3CCCC3)cn2C)c1,17.2%
8,Cc1nn(-c2ccccc2)c2c1C(c1ccc([N+](=O)[O-])cc1)N1C(=N2)C(=O)Nc2ccccc21 (stereo not shown),-28.4%
9,CCOc1ncccc1C(=O)Nc1ccc(F)c(F)c1,-7.94%
10,Cc1ccsc1C(=O)N1CCC(CO)(Cc2ccccc2)CC1,17.6%
11,O=C(CSc1nnc2ccccn12)NCc1ccco1,22.3%
12,Cc1ccc(C(=O)NCc2ccc(N3CCN(C)CC3)cc2)cc1C,-21.7%
13,COc1cc(OC)cc(-n2nnnc2SCC(=O)N2CCCC2)c1,-30.2%
14,C=CCn1cccc(C(=O)Nc2ccc(OC)cc2OC)c1=O,8.74%
15,CN(CC1CCCO1)S(=O)(=O)c1ccc(C(=O)Nc2nc3cc4c(cc3s2)OCO4)cc1 (stereo not shown),9.81%
16,N#C/C(=C\c1ccccc1)C(=O)N1CCN(c2ccccc2F)CC1,-1.17%
17,O=C(Cn1nnc(-c2cccc(C(F)(F)F)c2)n1)N1CCOCC1,-8.77%
18,CN(C)c1ccc(/C=N/NC(=S)NCc2ccco2)cc1,-6.25%
19,CCOc1cccc2cc(C(=O)NCc3ccc(C)cc3)c(=N)oc12,10.5%
20,CCc1ccc(OCC2c3cc(OC)c(OC)cc3CCN2C(=S)NCCOC)cc1 (stereo not shown),-1.52%
21,CC(C)NC(=O)CCCn1c(=S)[nH]c2cc3c(cc2c1=O)OCO3,2.04%
22,CC(C)CNC(=O)COc1ccc2c3c(c(=O)oc2c1)CCC3,-13.7%
23,O=C(O/N=C(\c1ccccc1)c1ccncc1)c1ccccc1F,11.2%

row,SMILES,"hERG current change (%, negative = inhibition) at 10uM"
1,Cc1ccc(S(=O)(=O)N(C)CCCC(=O)Nc2ccccn2)cc1,-9.42%
2,CCN(Cc1ccncc1)Cc1cn[nH]c1-c1ccc(OC)cc1F,-3.13%
3,CCOC(=O)c1ccccc1NC(=S)N1CCN(C(=O)c2ccco2)CC1,22.1%
4,Cc1cccc(C)c1NC(=O)CNC(=O)c1c(C)nn(C)c1Cl,19.9%
5,COCCCn1cn[nH]c1=S,27.2%
6,COc1ccccc1NC(=S)NCc1ccccn1,1.54%
7,Cc1cc(OCC(=O)N2CCCC2)ccc1Cl,-0.71%
8,c1ccc2c(c1)ncn2CCCOc1ccc2c(c1)CCC2,-38.6%
9,CCCCN1CC(=O)N2[C@H]3c4cc(C)ccc4OC[C@@H]3[C@H](C(=O)OCC)[C@]2(C)C1=O,1.47%
10,COc1ccc(-c2cc(C(=O)NCCN3CCOCC3)no2)cc1OC,18.9%
11,Cc1occc1C(=O)N/N=C/C1=C(N2CCOCC2)C(=C\c2ccc(Cl)cc2Cl)/CC1,27.6%
12,O=C1CCCc2ccccc2N1Cc1cccc(Cl)c1,-16.3%
13,Fc1ccc(-[n+]2nc(Nc3ccccc3)sc2-c2ccc(OCc3ccccc3)cc2)cc1.[Cl-],-20.5%
14,Clc1ccc(OCCn2cnc3ccccc32)cc1,-21.5%
15,C/C(=N/NC(=O)CNC(=O)/C=C/c1ccccc1)c1ccco1,2.78%
16,COc1cc(/C=C2/SC(=S)N(CC3CCCO3)C2=O)ccc1O (stereo not shown),-5.04%
17,O=C(Cn1cc(C(=O)C(F)(F)F)c2ccccc21)N1CCOCC1,16.6%
18,COc1ccc(Nc2nc(N)nc(CSc3nccn3C)n2)cc1,4.64%
19,Cc1ccc(-c2noc(C3CCN(C(=O)Nc4ccc(C#N)cc4)CC3)n2)o1,-49%
20,CC(=O)Nc1cccc(NC(C)=O)n1,19.6%
21,Cc1nc(SCC(=O)NCCc2ccccc2)n[nH]1,3.66%
22,COCCN(C(=S)Nc1cc(C)cc(C)c1)C(C)c1cccnc1 (stereo not shown),-58.4%
23,CCCCCCn1c(=O)c(C(=O)Nc2nc(CC(=O)OCC)cs2)c(O)c2ccccc21,8.83%

row,SMILES,"hERG current change (%, negative = inhibition) at 10uM"
1,CC1CCCN(C(=O)C2CCC(CNc3c(N4CCCCC4)c(=O)c3=O)CC2)C1 (stereo not shown),-8.22%
2,CCCCn1c(=O)[nH]c2ccccc21,-0.955%
3,COc1ccc(NC(=O)COc2ccccc2F)cc1S(=O)(=O)N1CCCCC1,6.02%
4,O=C(NC1CCS(=O)(=O)C1)c1cnccn1 (stereo not shown),26.5%
5,COc1ccc(CCN(Cc2nc3ccccc3c(=O)[nH]2)C(=O)C2CC2)cc1,-13.4%
6,Cc1cccc(N2CC(C(=O)Nc3ccc(S(=O)(=O)NCC4CCCO4)cc3)CC2=O)c1C (stereo not shown),16.6%
7,CCOC(=O)c1cnc(/N=C/N(C)C)s1,11.9%
8,Cc1ccc(NC(=O)c2cc(-c3ccco3)nc3ccccc23)cc1S(=O)(=O)N1CCOCC1,10.9%
9,CC1CC(C)CN(S(=O)(=O)c2ccc3c(c2)CCN3C(=O)C2CC2)C1 (stereo not shown),3.08%
10,O=C(COC(=O)C1CCN(c2ccc(C(F)(F)F)cn2)CC1)Nc1ccc(F)cc1[N+](=O)[O-],13%
11,COc1ccc2cnnc(SCC(=O)Nc3ccccc3)c2c1OC,-19.7%
12,O=C(Nc1ccc(Cl)c(Cl)c1)c1ccco1,3.48%
13,O=C(O)CN(Cc1ccccc1)S(=O)(=O)c1ccc(F)cc1,2.09%
14,On1c(-c2ccccc2Cl)nc2ncccc21,17.4%
15,COc1ccc(-c2nc3cnccn3c2NCc2ccccc2)cc1SC1CCCCC1.O=C(O)C(F)(F)F,2.68%
16,O=C1CSCC(=O)N1c1ncc(C(F)(F)F)cc1Cl,10.7%
17,O=C(NCCNc1ccc([N+](=O)[O-])cc1C(F)(F)F)c1ccc(F)cc1,-14.1%
18,Cc1ccc(C(=O)NC2CC(C)(C)NC(C)(C)C2)c(C)c1,5.08%
19,Cc1ccc(SCc2noc(-c3c(C)noc3C)n2)cc1,-22.2%
20,Cc1c(C)n(C)c2ccc(C(=O)NCCCN3CCN(c4ccc(F)cc4)CC3)cc12,-66.6%
21,CC1CCCCN1CCNC(=O)C1CCN(S(=O)(=O)N2CCCCC2)CC1 (stereo not shown),2.23%
22,O=C(/C=C/c1ccccc1Cl)c1ccc(O)cc1,21.3%
23,CCC(=O)Nc1cccc(NC(=O)c2ccccc2Br)c1,2.27%

row,SMILES,"hERG current change (%, negative = inhibition) at 10uM"
1,CCOc1ccc(NC(=O)C2CC(=O)NC(N3CCc4ccccc43)=N2)cc1 (stereo not shown),6.43%
2,CCCC(=O)Nc1ccc(NC(=O)c2ccccc2Cl)nc1,1.02%
3,O=C(CSc1nccn1Cc1ccco1)Nc1ccccc1,4.6%
4,Cc1cc(Nc2cccc(Cl)c2Cl)n2ncnc2n1,1.85%
5,Cc1ccc(-c2csc(NC(=O)C3CSC4(C)CCC(=O)N34)n2)cc1 (stereo not shown),32.3%
6,COc1ccc(N2C(=NC(=O)C3CCCO3)SC3CS(=O)(=O)CC32)cc1 (stereo not shown),5.78%
7,CCOc1ccc(-n2c(=S)sc3c(=O)n(-c4ccccc4)c(SC)nc32)cc1,27%
8,COc1ccc(CCNC(=O)CSc2nc3c(c(=O)n(C)c(=O)n3C)n2C)cc1OC,4.6%
9,CC(=O)c1c(C)[nH]c(C(=O)NCc2ccc(F)cc2)c1C,7.05%
10,COc1ccc(S(=O)(=O)n2[nH]c(=O)c(CCO)c2C)cc1,14.8%
11,Cc1cc(C)nc(SCc2ccc(C(=O)N/N=C/c3ccco3)cc2)n1,-25.7%
12,C=CCn1c(SCc2ccccc2)nnc1-c1cccnc1,-20.5%
13,Cc1ccccc1N1CC(C(=O)N2CC(C)CC(C)C2)CC1=O (stereo not shown),5.36%
14,CC(NC(N)=O)C(=O)OCc1ccc(Cl)cc1Cl (stereo not shown),16.7%
15,Cc1cc(N)ccc1NC(=O)CN1CCOCC1,15.8%
16,COc1ccc(CCNC(=O)c2c(O)c3ccccc3[nH]c2=O)cc1OC,21.3%
17,COc1cccc(CN(C)C(=O)CNC(=O)c2cccs2)c1OC,0.319%
18,COc1ccc(-n2nc(C(=O)NCc3ccco3)c3ccccc3c2=O)cc1,-17.1%
19,COC(=O)c1cc(Cl)c(NC(=O)c2cc(OC)c(OC)c(OC)c2)cc1OC,12.2%
20,Cc1ccc(C(=O)Nc2ccc(NC(=O)c3cccs3)cc2)cc1[N+](=O)[O-],17.5%
21,Cc1cc(C)cc(NC(=S)NC2CC3CCCC(C2)N3C2CCCC2)c1 (stereo not shown),-77.5%
22,Cc1ccnn1CCC(=O)N1CCCC(CCC(=O)N2CCN(c3ccccn3)CC2)C1 (stereo not shown),-48.2%
